# Data as given in PubChem BioAssay AID504332 (National Center for Advancing Translational Sciences (NCATS), 2011).
# Out of some 350,000 compounds screened, about 31,000 (8.9%) were called active. Inconclusive results, whose numbers are uncertain, are shown with a selection of clear calls. The call rests on the fitted dose curve; in most records, active means well fitted inhibition curve with a large enough effect; inconclusive means small, poorly fitted or top-dose-only effect; inactive means no such curve, though single readings can be large or run the other way. Potencies of inconclusive entries are doubtful fits and often do not repeat.
# Target: Histone-lysine N-methyltransferase EHMT2 (Homo sapiens) (UniProt Q96KQ7)
# Sequence of UniProt Q96KQ7 (Q96KQ7 whole entry, looked up): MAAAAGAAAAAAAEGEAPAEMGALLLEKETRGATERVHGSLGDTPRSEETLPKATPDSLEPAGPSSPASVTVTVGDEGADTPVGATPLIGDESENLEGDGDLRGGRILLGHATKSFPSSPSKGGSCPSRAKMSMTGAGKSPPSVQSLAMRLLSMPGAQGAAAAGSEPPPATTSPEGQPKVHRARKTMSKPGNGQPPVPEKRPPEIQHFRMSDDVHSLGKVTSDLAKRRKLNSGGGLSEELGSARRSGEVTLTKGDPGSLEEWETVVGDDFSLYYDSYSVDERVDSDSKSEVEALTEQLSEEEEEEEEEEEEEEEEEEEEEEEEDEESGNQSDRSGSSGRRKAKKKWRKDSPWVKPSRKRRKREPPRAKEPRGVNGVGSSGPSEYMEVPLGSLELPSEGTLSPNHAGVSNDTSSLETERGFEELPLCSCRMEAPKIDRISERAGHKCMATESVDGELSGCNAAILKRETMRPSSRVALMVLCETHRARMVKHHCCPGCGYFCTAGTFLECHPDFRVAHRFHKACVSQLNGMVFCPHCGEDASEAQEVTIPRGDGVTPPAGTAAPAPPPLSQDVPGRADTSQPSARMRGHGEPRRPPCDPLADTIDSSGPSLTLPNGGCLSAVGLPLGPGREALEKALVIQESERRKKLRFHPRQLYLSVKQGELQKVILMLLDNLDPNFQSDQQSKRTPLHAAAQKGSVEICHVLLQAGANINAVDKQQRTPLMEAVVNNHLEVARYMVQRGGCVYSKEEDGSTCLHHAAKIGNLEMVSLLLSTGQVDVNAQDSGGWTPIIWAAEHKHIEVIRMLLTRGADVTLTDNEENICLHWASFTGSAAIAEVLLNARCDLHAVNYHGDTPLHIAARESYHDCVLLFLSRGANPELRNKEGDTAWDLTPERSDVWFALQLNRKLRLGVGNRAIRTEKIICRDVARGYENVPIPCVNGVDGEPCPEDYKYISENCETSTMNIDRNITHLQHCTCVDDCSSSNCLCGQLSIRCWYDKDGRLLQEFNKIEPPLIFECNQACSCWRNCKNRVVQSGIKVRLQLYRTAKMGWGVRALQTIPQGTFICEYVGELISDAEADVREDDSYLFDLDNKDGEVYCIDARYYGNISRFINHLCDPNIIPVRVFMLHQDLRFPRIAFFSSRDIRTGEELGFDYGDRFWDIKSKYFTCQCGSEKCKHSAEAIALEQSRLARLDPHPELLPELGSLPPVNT
# Assay: qHTS Assay for Inhibitors of Histone Lysine Methyltransferase G9a; further: nearly all actives have a fitted effect of over 75% in size
# Conditions: G9a H3K9 monomethylation, AlphaScreen, 2 h; activity, negative = inhibition: at 59 µM (top of the series) unless noted
# Procedure, shortened: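 Methyltransferase reactions run at room temperature for 2 h (20 nM enzyme, 500 nM biotin-H3K9 peptide, 20 uM SAM) after a 15 min compound preincubation; product detected by AlphaScreen beads and anti-H3K9me1 antibody.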
# On the % scale 0 is the no-effect control and ±100 the full control effect; potency means the concentration at half of the fitted maximal effect; tags describe the fitted curve by direction and shape.
Compound,Potency,"activity, negative = inhibition"
Cc1sc2nc(CN3CCOCC3)nc(N3CCOCC3)c2c1C,active: 3.55 µM,
CN(C)CCCN(C(=O)CCc1ccccc1)c1nc2ccc(Cl)cc2s1,"inconclusive: 31.6 µM [inhibitor, single point]",
Cc1ccsc1C(=O)OCC(=O)Nc1cccc(S(=O)(=O)NC2=NCCCCC2)c1,,inactive: -3.04% [at 102 µM]
CCN(C(=O)CN1C(=O)c2ccccc2S1(=O)=O)C1CCCCC1,"inconclusive: 89.1 µM [inhibitor, partial curve, poor fit]",
CC(=O)OCC(=O)[C@]1(O)C(OC(C)=O)CC2C3CCC4=CC(=O)C=C[C@@]4(C)[C@]3(F)C(O)C[C@]21C (some centres not stated),,inactive: -11.4% [at 2.33 µM]
CCCc1c(C(=O)N/N=C(\C)CCc2ccc(OC)cc2)nnn1-c1nonc1N,,inactive: 20.9% [at 102 µM]
CC(c1ccc(Br)cc1)N1CC23C=CC(O2)C(C(=O)O)C3C1=O (configuration not stated),"inconclusive: 89.1 µM [inhibitor, single point]",
Cc1c(C(=O)OC2CCCCCC2)[nH]c2c1C(=O)CC(c1ccc(Cl)cc1)C2 (configuration not stated),"inconclusive: 0.112 µM [inhibitor, full curve, poor fit]",
CCc1ccccc1NC1c2ccccc2C(=O)N1c1cccnc1 (configuration not stated),"inconclusive: 44.7 µM [inhibitor, partial curve, poor fit]",
CN(C(=O)c1cccc(C#N)c1)c1nnc(C2CCCO2)s1 (configuration not stated),"inconclusive: 79.4 µM [inhibitor, single point]",
COc1cc(NC(=S)Nc2ccccn2)cc(OC)c1OC,"inconclusive: 50.1 µM [inhibitor, partial curve, poor fit]",
COc1cc(OC)cc(C(=O)N[C@H](C(=O)NCc2ccc(F)cc2)C(C)C)c1,,inactive: -46% [at 102 µM]
CS(=O)CSc1nc2c(cc1C#N)CCCC2 (configuration not stated),,inconclusive: -70.2% [inhibitor]
Cc1cc(C)cc(NC(=O)C2C3C=CC(O3)C2C(=O)O)c1 (configuration not stated),"inconclusive: 89.1 µM [inhibitor, single point]",
CCOCc1c(C(=O)Nc2ccccc2N2CCN(C)CC2)oc2ccccc12,"inconclusive: 50.1 µM [inhibitor, partial curve, poor fit]",
CC1CCN(c2ccc(NC(=O)c3cccnc3)cc2)CC1,"inconclusive: 39.8 µM [inhibitor, single point]",
Cc1nc(NCc2ccc3c(c2)OCO3)c2oc3ccccc3c2n1,"inconclusive: 39.8 µM [inhibitor, single point]",
CC1Cc2ccccc2N1C(=O)COC(=O)c1ccc(Cl)c(S(=O)(=O)N2CCOCC2)c1 (configuration not stated),,inactive: -6.67% [at 12.7 µM]
CCCCN(C(=O)c1ccc(C)c(S(=O)(=O)N2CCOCC2)c1)c1c(N)n(CC(C)C)c(=O)[nH]c1=O,"inconclusive: 89.1 µM [inhibitor, single point]",
Cc1cccnc1NC(=O)Cn1nc([N+](=O)[O-])cc1C,"inconclusive: 89.1 µM [inhibitor, partial curve, poor fit]",
O=C(CSc1ccccn1)N1CCc2ccccc21,"inconclusive: 56.2 µM [inhibitor, partial curve, poor fit]",
CCNC(=O)/N=C1/NC(=O)C(C(C)C)O1 (configuration not stated),,inconclusive: -99.9% [inhibitor]
CCOC(=O)N1CCN(C(=O)C(CC(C)C)NS(=O)(=O)c2ccc(C)cc2)CC1 (configuration not stated),,inactive: 9.07%

Compound,Potency,"activity, negative = inhibition"
N#CC1=C(N)c2ccccc2CC12CCCCC2,"inconclusive: 10 µM [inhibitor, partial curve]",
Clc1cccc(C(c2ccc3nc[nH]c3c2)n2ccnc2)c1 (configuration not stated),"inconclusive: 2.82 µM [inhibitor, partial curve, poor fit]",
Cc1cc(C)cc(NC(=O)Cn2cc(C(=O)c3cccs3)c3ccccc32)c1,,inactive: -32.6%
C=CCNC(=S)Nc1sc2c(c1C(N)=O)CCCC2,active: 17.8 µM,
Cc1cccc(-n2cc(-c3ccccc3)c3c(=O)[nH]cnc32)c1,"inconclusive: 20 µM [inhibitor, single point]",
CCOC(=O)c1c(C)n(CC)c2ccc(OC(=O)c3ccc([N+](=O)[O-])cc3)cc12,"inconclusive: 15.8 µM [inhibitor, partial curve]",
FC(F)(F)c1cccc(NC(=S)NNC(=S)NCc2ccccc2)c1,"inconclusive: 0.631 µM [inhibitor, full curve, poor fit]",
Cc1ccc(CNC(=O)c2ccc(CN3CC(=O)N4CCCCC4C3=O)cc2)cc1 (configuration not stated),,inactive: -13.6%
CC(C)(C)OC(=O)NN1CC(=O)N2Cc3ccccc3C[C@@H]2C1=O,,inactive: -6.74% [at 102 µM]
CCc1noc(C)c1C(=O)Nc1cc(Cl)ccc1-n1cncn1,"inconclusive: 79.4 µM [inhibitor, partial curve, poor fit]",
Cc1cc2c(ncn2C)c(NS(=O)(=O)c2ccccc2Cl)c1C,"inconclusive: 22.4 µM [inhibitor, partial curve, poor fit]",
CCc1nc2ccccc2c(C(=O)OCC(=O)NCc2ccco2)c1C,,inconclusive: -78.7% [inhibitor]
COc1ccc(/C=C2\SC(=S)N(CCC(=O)N3CCCCC3CCO)C2=O)cc1 (configuration not stated),"inconclusive: 1.41 µM [inhibitor, partial curve, poor fit]",
COc1cccc(NC(=O)c2ccnc(N3CCC(C(=O)NCc4ccccc4OC)CC3)c2)c1,,inactive: 1.25% [at 102 µM]
COc1ccc2c(c1)c(=O)c(C(=O)c1ccc(F)cc1)cn2CC(=O)Nc1ccc2c(c1)OCO2,,inactive: 12.3%
COC(=O)c1c(N2C(=O)[C@H]3[C@@H](C2=O)[C@]2(C(=O)Nc4c2ccc(C)c4C)N2CCC[C@@H]32)sc(C)c1C,"inconclusive: 28.2 µM [inhibitor, single point]",
CCc1nnc(NC(=O)c2nc(SCc3ccccc3F)ncc2Cl)s1,"inconclusive: 1.78 µM [inhibitor, partial curve, poor fit]",
COc1cc(C(=O)ON=C2C=C(C)C(=O)C(C)=C2)cc(OC)c1OC,,inactive: -10.4%
O=C(c1cccc(C(F)(F)F)c1)C1CCCN(C(=O)CCn2cnnn2)C1 (configuration not stated),,inactive: -6.37%
Cc1ccc(S(=O)(=O)c2ccc(Cl)cc2)cc1S(=O)(=O)N1CCN(C)CC1,"inconclusive: 2.82 µM [inhibitor, partial curve, poor fit]",
CN(C)CCCNc1nc(-c2ccccc2)c2c(c1C#N)CC(C)(C)OC2,,inactive: -10.5% [at 12.7 µM]
COc1ccc(Cl)cc1C(=O)Nc1nnc2n1CCS2,"inconclusive: 14.1 µM [inhibitor, partial curve, poor fit]",
Cc1cc(Br)ccc1NC(=O)c1sc2nc3n(c(=O)c2c1C)CCCC3,active: 12.6 µM,

Compound,Potency,"activity, negative = inhibition"
NC(=O)c1c(NC(=O)c2cc3ccccc3o2)sc2c1CCC2,"inconclusive: 89.1 µM [inhibitor, partial curve, poor fit]",
COc1cc(C(=S)N2CCOCC2)cc(OC)c1OS(=O)(=O)c1ccc(NC(C)=O)cc1,,inactive: -30.5%
COc1ccc(NC(=O)COC(=O)c2cc(OC)c(OC)cc2NC(=O)c2ccco2)cc1OC,"inconclusive: 14.1 µM [inhibitor, partial curve, poor fit]",
Cc1ccc(NC(=O)C2CCN(c3nnc(C)c4c(C)n(-c5ccccc5)nc34)CC2)c(Cl)c1,"inconclusive: 3.16 µM [inhibitor, single point]",
CCS(=O)(=O)C1=NSC2=NC(=O)/C(=C\c3ccc(OC(=O)c4ccco4)c(OC)c3)C(=N)N21,"inconclusive: 56.2 µM [inhibitor, partial curve, poor fit]",
COc1ccc(O[C@H]2C=C[C@@H](c3ccccc3)O[C@@H]2COC(=O)CC/C(C)=N/O[C@@H](C)c2cn([C@H](CO)Cc3ccccc3)nn2)cc1,active: 79.4 µM,
CCOc1ccc(-n2c(=O)c3ccccc3c3ccccc3c2=O)cc1,"inconclusive: 39.8 µM [inhibitor, full curve]",
CCOC(=O)COc1ccc2ccccc2c1/C=C/[N+](=O)[O-],active: 17.8 µM,
Cc1ccnc(NC(=O)Cc2ccc(-c3ccccc3)cc2)c1,,inactive: 56.9% [at 102 µM]
COCCN(Cc1nc2ccccc2c(=O)[nH]1)C(=O)COc1cccc(C(C)=O)c1,,inactive: 50.7% [at 12.7 µM]
CCCCNC(=S)N/N=C1\C(=O)c2cccc3cccc1c23,,inactive: 9.35% [at 102 µM]
COc1cccc(Cn2c(=O)c(-c3cc(F)cc(F)c3)nc3cnc(N(C)C)nc32)c1,,inactive: 0.585% [at 0.501 µM]
CCN(Cc1ccccc1)Cc1c(O)ccc2oc(C)c(C(=O)Nc3ccc(C)cc3C)c12,"inconclusive: 25.1 µM [inhibitor, single point]",
O=c1cc(NCCc2ccccc2)c2ccccc2o1,,inactive: 2.55% [at 102 µM]
COc1cc2ccccc2cc1C(=O)NC(=S)Nc1ccc(C(=O)O)cc1,"inconclusive: 44.7 µM [inhibitor, single point]",
COc1cccc(-c2cc(=O)c3cc(NC(=O)c4ccc(C)cc4)ccc3[nH]2)c1,"inconclusive: 12.6 µM [inhibitor, partial curve, poor fit]",
Cc1ccc(/C=C2/Sc3ccc(C(=O)N4CCN(C)CC4)cc3NC2=O)cc1,"inconclusive: 50.1 µM [inhibitor, partial curve, poor fit]",
CCCc1c(OCC(O)COc2ccc3c(=O)cc(C(=O)O)oc3c2CCC)ccc(C(C)=O)c1O (configuration not stated),,inactive: 2.74%
CSCCC(NC(=O)COc1ccccc1)C(=O)N1CCN(C(C)=O)CC1 (configuration not stated),,inactive: -11.2% [at 102 µM]
Cc1ccc(OCCOCCN2CCN(C)CC2)c(C(C)(C)C)c1,active: 14.1 µM,
COCCN(C(=O)COC(=O)CCC1CCCC1)c1c(N)n(Cc2ccccc2)c(=O)[nH]c1=O,"inconclusive: 79.4 µM [inhibitor, partial curve, poor fit]",
